PubChem BioAssay AID504832 (National Center for Advancing Translational Sciences (NCATS), 2011)
About 18,000 (5.8%) of roughly 310,000 compounds were called active. Inconclusive means that the source gave no clear call. Such entries were picked first, then a sample of the others. Calls follow the shape of the dose curve; as a rule, active = well fitted inhibition curve with a large enough effect; inconclusive = small, poorly fitted or top-dose-only effect, or another doubt; inactive = no such curve, though single readings can be large or run the other way. No potency is given beside an inconclusive call; the fits are too rough.

Assay: Primary qHTS for delayed death inhibitors of the malarial parasite plastid, 48 hour incubation
Settings: P. falciparum luciferase growth in erythrocytes; series mostly up to 28.7 µM
Outline: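 Here the parasites carry a stable luciferase gene and grow inside erythrocytes in Albumax-based RPMI medium with compound for one erythrocytic cycle. Activity is scored as loss of luminescent signal.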
Potency is read from the fitted curve at half-maximal effect; tags tell the direction and shape of the fitted curve.

SMILES | Potency
COc1cc(OC)cc(C(=O)Nc2ccc(C(=O)NCC3CCCO3)cc2)c1 (stereo not given) | inconclusive [inhibitor, partial curve, poor fit]
COc1ccc(N2CCN(c3nc(Nc4ccc(F)cc4)nc(OC)n3)CC2)cc1 | inactive
CN(CC(=O)NC(=O)NCc1ccccc1)CC(=O)Nc1ccc(Cl)c(Cl)c1 | inconclusive [inhibitor, single point]
Cc1ccc2occ(/C=N/NC(=O)[C@@H](N)Cc3ccccc3)c(=O)c2c1 | inconclusive [inhibitor, single point]
CCOc1cc(N2CCOCC2)c(OCC)cc1NC(=O)COc1cccc(Cl)c1 | inconclusive [inhibitor, full curve]
C[C@H](NC(=O)[C@H]1N2C(=O)c3ccccc3C2SC1(C)C)C(=O)N1CCC[C@H]1C(=O)O (stereo not given in full) | inconclusive [inhibitor, full curve, poor fit]
CCOc1[nH]n(-c2ccc(Cl)cc2)c(=O)c1C=NCc1cccnc1 | inconclusive [inhibitor, full curve, poor fit]
O=C(N/C(=C/c1cccc(Br)c1)c1nc(=S)[nH][nH]1)c1ccccc1 | inactive
Cc1cnc(C(=O)N2CCN(c3ccc(C(F)(F)F)cn3)CC2)cn1 | inactive
CN(C(=O)C1CCN(S(=O)(=O)c2cccs2)CC1)c1ccccc1 | inconclusive [inhibitor, single point]
Cc1ccccc1Cc1ccc(Cl)nn1 | active: 10.4 µM
CCCn1c(C)cc(C(=O)COc2ccc(S(=O)(=O)N(CC)CC)cc2[N+](=O)[O-])c1C | inactive
COc1ccc(Cl)cc1NC(=O)CNc1ccccc1F | inactive
CCOc1ccc(Cc2onc3c2C(=O)CC(C)(C)C3)cc1OCC | inconclusive [inhibitor, partial curve, poor fit]
CCC(C)(C)NC(=O)C(c1cccn1C)N(Cc1ccc(OC)cc1)C(=O)Cn1nnc2ccccc21 (stereo not given) | active: 9.28 µM
O=C(CC1CCCC1)N1CCCC(Nc2cccc(F)c2)C1 (stereo not given) | inconclusive [inhibitor, partial curve, poor fit]
CC/C=C\C/C=C\C/C=C\CCCCCCCC(=O)O | inconclusive [inhibitor, single point]
Cc1cccc(CSc2nnc(CCCCCNC(=O)OC(C)(C)C)o2)c1 | active: 9.28 µM
Cc1cc(C)cc(NC(=O)N2CCCN(c3ncccc3[N+](=O)[O-])CC2)c1 | inconclusive [inhibitor, single point]
Cc1cc(Cl)c2oc(C(=O)N3CCN(c4cccc(C)n4)CC3)c(C)c2c1 | inactive
Cc1ccc(C(=O)Cc2ccccc2)o1 | inconclusive [inhibitor, single point]
Clc1cccc(CSc2nnc(-c3cccnc3)n2Cc2ccco2)c1 | inconclusive [inhibitor, single point]
O=C(O[C@@H]1[C@H](Cc2ccccc2)NS(=O)(=O)[C@H]2C[C@@H]3C=C[C@]12O3)c1ccccc1Br | inconclusive [inhibitor, single point]

SMILES | Potency
CC(=O)N1CCOc2ccc(S(=O)(=O)N3CCC(C(=O)Nc4cc(C)cc(C)c4)CC3)cc21 | inconclusive [inhibitor, single point]
O=[N+]([O-])c1ccccc1NC1CCN(Cc2ccccc2)CC1 | inconclusive [inhibitor, single point]
O=S(=O)(c1c(Cl)sc(Cl)c1Br)N1CCCC1 | inconclusive [inhibitor, partial curve, poor fit]
O=[N+]([O-])c1cc(-c2ncccn2)c([N+](=O)[O-])s1 | inactive
COCCCNC(=O)C1=CCN(S(=O)(=O)c2ccc(C)cc2)CC1 | inactive
Cn1c(CN2CCCC2)nc2cc(NC(=O)COc3ccc([N+](=O)[O-])cc3)ccc21 | active: 13.1 µM
CCn1cc(C(=O)N[C@@H](CCSC)C(=O)NCCO)c(=O)c2cc3c(cc21)OCO3 | active: 8.28 µM
CCc1cccc(NC(=O)COc2ccccc2)c1 | inactive
COc1ccc(OC)c(CNS(=O)(=O)c2cn(C)cn2)c1 | inactive
Oc1ccc(/C=N/Nc2ccnc3cc(Cl)ccc23)c(O)c1O | inconclusive [inhibitor, single point]
CCOc1ccc(-n2c(Cc3ccccc3)nnc2SCc2c(C)noc2C)cc1 | inconclusive [inhibitor, single point]
COc1ccc(-n2ncc3c(=O)n(CC(=O)N4CCCc5ccccc54)cnc32)cc1 | inconclusive [inhibitor, partial curve]
O=C(NCCNc1ccc([N+](=O)[O-])cc1)c1ccc(Cl)cc1 | inconclusive [inhibitor, partial curve]
CCOc1ccc(C(=O)NCC(=O)NCC(c2cccs2)N2CCOCC2)cc1 (stereo not given) | inactive
CCOC(=O)N1CCN(CCC(=O)Nc2cc([N+](=O)[O-])ccc2OC)CC1 | inactive
O=C(NC1CC1)C1CCN(c2ccc(S(=O)(=O)N3CCOCC3)cc2)CC1 | active: 4.15 µM
Cc1c(C(=O)NCc2ccco2)cccc1[N+](=O)[O-] | inactive
CCOC(=O)c1cc2oc(C)cc2n1CC(=O)OC1CCCCC1 | inconclusive [inhibitor, single point]
Cc1ccc(-c2cc3ccccc3nc2N2CCCC2)cc1 | inconclusive [inhibitor, single point]
Cc1ccc(CN2C(=O)c3ccccc3Sc3ccc(C(=O)NCCN4CCOCC4)cc32)cc1 | inconclusive [inhibitor, partial curve]
CC(C)Oc1ccc(CNC(=O)CCCN2C(=O)C(c3ccccc3)Oc3cccnc32)cc1 (stereo not given) | inactive
CCn1c(SCC(=O)Nc2ccc3c(c2)n(C)c(=O)n3C)nnc1-c1ccncc1 | inconclusive [inhibitor, single point]
